From the supplement of paper PMC11417369
± gives the standard deviation of the averaged measurements. The list shows a part of the results.

test system: PfAP2-I AP2 domain 3 (GST-tagged); test: gcPBM binding intensity (ln(normalized median fluorescence intensity)); higher = stronger DNA binding
How it was run: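 The binding buffer was 1× PBS containing 1% milk, 0.2 mg/ml BSA, 0.5% salmon testes DNA and 0.03% Triton X-100. In it, GST-tagged P. falciparum DNA-binding domains expressed in E. coli were applied for 1 h to an Agilent 4 × 180k array of primer-extended double-stranded 36-bp intergenic genomic probes plus negative controls. Binding intensity, read with Alexa488 anti-GST antibody and a 488 nm scan, is the highest Masliner-normalised natural-log median intensity across replicate spots of either probe orientation.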

Sequence	gcPBM binding intensity (ln)
TTTTTTTTTTTTGTAGTGCAAATTAAAAATATATGT	10.6 ± 0.53
TGTTTATCATATTTGTGTCCTCATTTTTTAGTATCA [XGTACX_site947]	8.01 ± 0.41
ATTTTTTTTTTTTTTTTTTTTTTTTTTTTTTTATGC [CACACA_negctrl_site1018]	7.85 ± 0.68
TTATTTCTTCAGAAAAAATTAAAAAATTAAACAATA [CACACA_negctrl_site169]	7.53 ± 0.5
TGTTTACACTTTTTTTGTACACATAATTTTATTTGA [XGTACX_site3760]	7.89 ± 0.53
AAAAAAAAAAAAAACACACACATATAACATATTTAA [CACACA_site6745]	8.19 ± 0.38
TATTCTAGTCTGCTTACACACATATTTATATTTATA [CACACA_site7432]	8.01 ± 0.71
TAATATTTTATTTTTGTTGTGGATCCAAAAAAAAAA [CACACA_negctrl_site846]	7.76 ± 0.57
CTATATATTTAAAAAAGTACAAATATAAAAATATAT [XGTACX_site676]	7.92 ± 0.38
AAGATCATATATTCGTGGGTATAAAAAGTTATAATA [TGCATGCA_negctrl_site439]	7.88 ± 0.32
AGAAATATGTTGAAGCATTTATAATGTAGATATAAG [GTGCAC_negctrl_site640]	7.74 ± 0.47
AAAAAAAAAAAAAATACACACAAACACAAATTAAAT [CACACA_site5982]	8.05 ± 0.54
GTAATATTATAATATACACACATAGAATATATATAT [CACACA_site413]	8.74 ± 0.028
TTTATTATCAAGATTGCACACCCTTATGAACTTTTT [CACACA_site3166]	8.7 ± 0.37
TAATTTACACCTACGTGTACACACAAAAATATGTTT [XGTACX_site1868]	8.9 ± 0.28
ACAAAAAAAAAGGAAACACACAAAAAAAAAAAATAA [CACACA_site3523]	7.55 ± 0.63
ACTATATTTCTATAATGTACAAAAATAAATCATATG [XGTACX_site3337]	7.73 ± 0.37
ACCTATAAAAAATAATGTACAGGAAGAAATATAAGG [XGTACX_site5822]	8.16 ± 0.63
TAGGTCATATTTTTTGCACACAAAAAAAAATATAAA [CACACA_site3380]	8.745 ± 0.078
CACCTCAATATTCACATACACACAATATCATCGAAG [CACACA_site1675]	7.96 ± 0.5
TTTTTCCAATCAGATGCATGTTACTATATTTGGTTC [TGCATGCA_site52]	7.74 ± 0.96
TGTATAAGGTTTTTACGTTTTGAAGGATGTATTGTT [CACACA_negctrl_site1245]	7.68 ± 0.46

Sequence	gcPBM binding intensity (ln)
TATCATTTTGAAGTATGTACTTATTTTATTAAAATA [XGTACX_site7784]	7.96 ± 0.16
TAAATACATAAATACACACACATATATATATATATA [CACACA_site5549]	9.47 ± 0.66
ATTATATTAAAATATTCACACACTAACGTAAATCAT [CACACA_site8887]	7.51 ± 0.57
TACATAATTTTAATCACACACAAACAAACACATACA [CACACA_site194]	8.305 ± 0.064
GTAAGTATATATAATAGTACATATATATTAATATAT [XGTACX_site4314]	7.7 ± 0.48
TTTTGTTCATACAAATTGGAACAAGACAAAAATATA [XGTACX_negctrl_site327]	7.72 ± 0.51
GGGAGGATATTACACAGTACCCAGGAAATCTACGGA [XGTACX_site4874]	8.16 ± 0.13
TATGTTCCGAAGGTTGTACACACATAGAAATATACA [CACACA_site9285]	7.91 ± 0.47
TTTTTTTTTTTTGTAACATGCAAACAACAATATGGG [TGCATGCA_site695]	8.28 ± 0.48
ATGTAATTGTATACATGTACGCAAACACAAAAGCAT [XGTACX_site6771]	8.19 ± 0.42
AAGGAAAAAACAAATACACACAAAAACGCATTATAA [CACACA_site3466]	7.87 ± 0.71
ATGAACTTATTTTAGTGTACTAAAAAATATGACTTC [XGTACX_site470]	8.21 ± 0.35
CATATAATAAATAATACACACATATTGGAAATATAT [CACACA_site3212]	7.8 ± 0.48
AAAGGTATATATGTGTGTACATATATATATATATAT [XGTACX_site5629]	9.09 ± 0.54
CACATTTCTGTAGTTGCATGTAGAAAAAAAAAAAAA [TGCATGCA_site810]	8.14 ± 0.7
TTTTGAGAAAAAATAAAATAATAAATAAAAATACAT [XGTACX_negctrl_site66]	7.78 ± 0.58
AATACAATTGAAAATTGTACTTTGTTTTTTATAAAT [XGTACX_site4080]	7.45 ± 0.47
GATTTATATTTTAAAAGTACAAGTTAAAATAAAAGT [XGTACX_site7059]	8.21 ± 0.35
TTTGATTTTAATGTGTGTACACATTTATTTATATAA [XGTACX_site4806]	8 ± 0.042
ATATAATATCTGTATACACACATATTATATAATATT [CACACA_site5940]	7.86 ± 0.51
AATATAAGATTATTATGTACATAATAAATATGTATT [XGTACX_site4773]	7.86 ± 0.23
ATATAAGTATAATTATGTACTTATACTTATATAAAT [XGTACX_site5585]	7.57 ± 0.26

Sequence	gcPBM binding intensity (ln)
GGTCATCATCGGTATTGTACAAAAATGTGAAAATTA [XGTACX_site639]	8.06 ± 0.37
TTTTTTTTTTTGGTTACACACATTTGTATATTCTCA [CACACA_site134]	8.24 ± 0.66
CATATTAATACAGAATGTACGGATAACAAACTGTTT [XGTACX_site7935]	7.58 ± 0.64
CCATAACTCCTATGCACACATAAATATTACAGAGAT [CACACA_site5984]	9.04 ± 0.092
TTTTATTTAGGAGGTGCATGTAATACGGAACATAAT [TGCATGCA_site827]	9.56 ± 0.22
ATTAGTTTATATGAATGATTTTTCTTTTTTTTTTTT [CACACA_negctrl_site88]	7.31 ± 0.51
TTACTATTTCACTGTGCATGCAACAAAAATCTATCT [TGCATGCA_site808]	9.38 ± 0.57
ATATTTTGGGTGTTGTTTTTTTTTAAAACTCTTTAA [CACACA_negctrl_site1255]	8.04 ± 0.59
AAAAAAAAAAAAAATAATAAATAAATAAATAAATAA [GTGCAC_negctrl_site505]	8.41 ± 0.85
CGTAGCCGCACTAACACACACAAATATACGCAATCA [CACACA_site2898]	9.13 ± 0.2
AAAAATAAAAAAAAATTAAAATATATATATTTTGTT [TGCATGCA_negctrl_site102]	7.49 ± 0.67
AGGAAAAAAAGTAGCACACAAATATTTATAATATAT [CACACA_site2437]	7.88 ± 0.64
AACATATTTATATACACACACATATTTATATGAAAT [CACACA_site6268]	7.82 ± 0.56
GAGAGGATACATACATGTACATAAATATTTTATTTT [XGTACX_site5129]	7.86 ± 0.37
TTTTTATAACAAAGTATTTAAATAATTTATACTAAT [TGCATGCA_negctrl_site104]	7.47 ± 0.47
GAACAAATTACAAGTTGTACTTTATGTAAATTATTA [XGTACX_site5304]	7.65 ± 0.3
ATGCGTTCATACATACATACATACATACAATTTGTA [TGCATGCA_negctrl_site50]	7.91 ± 0.6
AACATTTATATTTAAGTGCAGATGCTGTAATTTAGA	8.46 ± 0.26
TTTTGAATTAAACAAGCATGCTTTATTTACTTCTTA [TGCATGCA_site289]	7.59 ± 0.86
TAATTCATCCTATGCACACACAATACCAAAATGTGC [CACACA_site4269]	8.95 ± 0.16
TAATTTATTAATAATTGTACAGATATTATACTTAAA [XGTACX_site8947]	7.46 ± 0.32
TGCTCATGAGGTCAGAGTACAAAATAGTAAATGTAT [XGTACX_site2973]	7.93 ± 0.8

Sequence	gcPBM binding intensity (ln)
TTTTTTTTTTTTTTTCTTTTTTATTCTCACAAAAAA [CACACA_negctrl_site1790]	8.2 ± 0.74
TTTATTTTTATTTTTGTGCACGGGATTAAATAAAAG [GTGCAC_site9842]	11.22 ± 0.092
ATATTTTTTCTGAACGGTACAGAATTTTTCAAGATT [XGTACX_site484]	7.78 ± 0.64
TATATATATCTGTATACACACATATGTATGTTATGT [CACACA_site6090]	8.01 ± 0.64
CCTTTTTCTAATGGATGTACTTATTATATACATTAT [XGTACX_site281]	7.86 ± 0.54
AAGAAAAGTAAATATGCATGTAGGGTAGGTTATTTT [TGCATGCA_site46]	8.31 ± 0.93
AAATTTATATATAGTTGTACAAAAATATGTTTCGTA [XGTACX_site4801]	7.78 ± 0.44
TTATTTTATCACACATGTACATATGTTAATTTTTTT [XGTACX_site5598]	8.11 ± 0.53
AAAATAAAAAGAAATAAATTAACAGTAAGGAAAAAA [CACACA_negctrl_site1105]	7.86 ± 0.8
TGAATAATCAATAGTACACACATATAAATATATATA [CACACA_site2813]	8.01 ± 0.65
GCACGAAACAATGTATATATATATATATATATATAT [GTGCAC_negctrl_site412]	9.52 ± 0.52
TTCTTTATGGAAGTGTAAAAAAAGAAATACTTTTTT [CACACA_negctrl_site915]	7.44 ± 0.57
ATATAACAGAAACACACACACATATATATATATTAT [CACACA_site4140]	7.86 ± 0.5
TATTTTTATATATAATCACACATTGGAATGTTCTAA [CACACA_site5540]	7.71 ± 0.61
ATAAATGATAGTAAAAGTACACAAAATGTTTTAAAA [XGTACX_site1623]	7.92 ± 0.4
ATTACATGTATACATGTCAACACGTATAAAAAAAAA [CACACA_negctrl_site1154]	7.83 ± 0.77
ATTATAAATATATTTTGTACTTAAAAGGAAAAAAAA [XGTACX_site55]	7.66 ± 0.28
TACACAAACAGACACACACACACACGCGCACAAAAA [CACACA_site7192]	8.48 ± 0.51
AATAAGCATAGACACACACACAAAAAAAAAAAAAAA [CACACA_site6476]	7.99 ± 0.54
AATAAATAGAGGAAATGTACATATAAAAATAATTTC [XGTACX_site2454]	7.84 ± 0.76
GATTATCTTCAAGTATGTACACACTATATATAATAA [XGTACX_site5108]	8.09 ± 0.36
TTAACATCTTCGTTGACACACAAAAAAAAAAATAAT [CACACA_site1819]	7.8 ± 0.5
